{"source": "PubChem BioAssay AID686979", "about": "(National Center for Advancing Translational Sciences (NCATS), 2013)", "note": "“And” between values parts separate entries of the source, which are not always exact repeats. Equal entries are not always repeated. About 50,000 (12%) of roughly 420,000 compounds were called active. The inconclusive results got no clear call from the source; some entries with a clear call stand among them for comparison. Calls follow the shape of the dose curve; as a rule, active = well fitted inhibition curve with a large enough effect; inconclusive = small, poorly fitted or top-dose-only effect; inactive = flat fitted curve, though single readings scatter. Potencies of inconclusive entries are left out as doubtful fits. Some structures have more than one record in an assay (separate samples or runs), and their calls can disagree. % is scaled to controls: 0 for no effect and ±100 for the full control effect; potency is read from the fitted curve at half-maximal effect; tags tell the direction and shape of the fitted curve."}
{"assay": "qHTS for Inhibitors of human tyrosyl-DNA phosphodiesterase 1 (TDP1): qHTS in cells in presence of CPT; also: nearly all actives have a fitted effect of over 55% in size", "conditions": "chicken DT40 Tdp1-/-;hTDP1 cells + 20 nM CPT, ATP luminescence, 48 h; activity change, negative = growth inhibition: at 46.2 µM (top of the series)", "outline": "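Chicken DT40 Tdp1-/- cells stably complemented with human TDP1 were seeded at 400 cells/well in medium containing 20 nM camptothecin, exposed to pin-transferred compounds, and grown at 37 °C for at least 48 hr. Viability was read as ATP luminescence.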"}
{"compound": "CCCN(CCC)c1c([N+](=O)[O-])c(=O)oc2ccccc12", "activity change, negative = growth inhibition": "inactive: 28.2%"}
{"compound": "Cc1cc(Br)ccc1NC(=O)c1sc2ncnc(N3CCN(c4ccccn4)CC3)c2c1C", "Potency": "active: 10.3 µM"}
{"compound": "COc1ccc(-n2c(=O)cnc3cnc(Nc4ccccc4)nc32)cc1", "Potency": "inconclusive [inhibitor, partial curve]"}
{"compound": "COc1ccc(-c2nc(-c3cccnc3)no2)cc1", "Potency": "inconclusive [inhibitor, partial curve]"}
{"compound": "COc1cc(OC)c(NC(=O)Nc2ccc3c(c2)N(C)C(=O)c2ccccc2S3)cc1Cl", "Potency": "active: 5.8 µM"}
{"compound": "Cc1ccc(S(=O)(=O)Nc2cc3c4c(c2)CC(=O)N4CCC3)cc1", "activity change, negative = growth inhibition": "inconclusive: -30.4% [inhibitor]"}
{"compound": "CCCOc1ccc(Cc2nn[nH]n2)cc1", "activity change, negative = growth inhibition": "inactive: -6.25%"}
{"compound": "CC(C)c1ccc(S(=O)(=O)N2CCN(C(=O)C3CCN(C(=O)c4ccc(F)cc4)CC3)CC2)cc1", "Potency": "inconclusive [inhibitor, single point]"}
{"compound": "O=C(COc1ccc(Cl)cc1Cl)Nc1ccc(C(=O)Nc2ccccc2C(=O)O)cc1", "activity change, negative = growth inhibition": "inactive: 17.4%"}
{"compound": "COc1ccccc1CCn1cnc2c3cc(C)ccc3n(C)c2c1=O", "Potency": "active: 18.4 µM"}
{"compound": "CCN1CCN(c2nc(Nc3cccc(OC)c3)nc(N)c2[N+](=O)[O-])CC1", "Potency": "active: 13 µM"}
{"compound": "CCN(Cc1ccccc1)C(=O)CSc1nc(C)cc(C)c1C#N", "Potency": "inconclusive [inhibitor, single point]"}
{"compound": "COc1ccc(Br)cc1CNC(=O)C1CCC(=O)N1C(C)C", "note": "(stereo not drawn)", "activity change, negative = growth inhibition": "inactive: 3.09%"}
{"compound": "COc1ccc(-c2csc(NC(=O)c3ccco3)n2)cc1", "activity change, negative = growth inhibition": "inactive: -6.2%"}
{"compound": "COC(=O)c1ccccc1NC(=O)CCCn1nc(C)c2c(C)n(-c3ccccc3)nc2c1=O", "Potency": "inconclusive [inhibitor, single point]"}
{"compound": "CCOc1ccccc1CNC(=O)c1ccc(-n2c(C)cc3c2CCC(C)C3)cc1", "note": "(stereo not drawn)", "Potency": "inconclusive [inhibitor, single point]"}
{"compound": "Cc1ccnc(Nc2nc3ccccc3s2)n1", "activity change, negative = growth inhibition": "inactive: -17.4%"}
{"compound": "O=[N+]([O-])c1ccccc1SN(Cc1ccccc1)c1ccccn1", "Potency": "inconclusive [inhibitor, single point]"}
{"compound": "CCn1c2ccccc2c2cc(CN3CCN(Cc4cccc(Cl)c4)CC3)ccc21", "Potency": "inconclusive [inhibitor, single point]"}
{"compound": "OC(Cc1ccccc1Br)c1ncc(-c2ccc(Cl)cc2)[nH]1", "note": "(stereo not drawn)", "Potency": "inconclusive [inhibitor, single point]"}
{"compound": "COc1ccccc1CCNC(=O)Cn1ccc2cc(S(=O)(=O)N3CCC(C)CC3)ccc21", "Potency": "inconclusive [inhibitor, single point]"}
{"compound": "COc1cc2c(cc1OC)-c1cc(Nc3cccc(F)c3)nc(=O)n1CC2", "activity change, negative = growth inhibition": "inactive: 4.39%"}
{"compound": "Cn1c(SCC(=O)NNC(=O)Nc2ccccc2)nnc1-c1ccccc1", "activity change, negative = growth inhibition": "inactive: 13%"}
{"compound": "Oc1cc(O)cc(/C=C/c2ccc(O)c(O)c2)c1", "Potency": "inactive and active: 10.3 µM"}
{"compound": "O=C(/C=C/c1cccs1)N1CCN(c2ccc(O)cc2)CC1", "Potency": "inconclusive [inhibitor, single point]"}
{"compound": "CC1CCCN(C(=O)C2CCN(S(=O)(=O)c3cccs3)CC2)C1", "note": "(stereo not drawn)", "Potency": "inconclusive [inhibitor, single point]"}
{"compound": "COc1ccc(CCNC(=O)c2c[nH]c3ccccc3c2=O)cc1OC", "Potency": "inconclusive [inhibitor, single point]"}
{"compound": "O=S(Cc1ccccc1)CC(O)(c1ccc(Cl)cc1)c1ccc(Cl)cc1", "note": "(stereo not drawn)", "Potency": "inconclusive [inhibitor, single point]"}
{"compound": "CCN(CC)C(=O)C(C)N(C#N)c1nc(Cl)nc(N(C)C)n1", "note": "(stereo not drawn)", "activity change, negative = growth inhibition": "inactive: 3.26%"}
{"compound": "Cc1ccc(CNC(=O)c2cc(-c3ccc(C)c(C)c3)nc3ccccc23)cc1", "Potency": "inconclusive [inhibitor, single point]"}
{"compound": "CCNc1nc(NCC)nc(N/N=C/c2ccc(OC)cc2)n1", "activity change, negative = growth inhibition": "inactive: -0.618%"}
{"compound": "CC1CCN(C(=S)Nc2ccc(F)cc2)CC1", "Potency": "inconclusive [inhibitor, full curve, poor fit]"}
{"compound": "Cc1ccc2c(c1)N(CC(=O)N1CCCCC1)C(=O)C(C)O2", "note": "(stereo not drawn)", "activity change, negative = growth inhibition": "inactive: -5.12%"}
{"compound": "COc1ccc(-c2csc(C)n2)cc1", "activity change, negative = growth inhibition": "inactive: -9.19%"}
{"compound": "Oc1ccccc1N1CCN(CC(O)COC2CCCc3ccccc32)CC1", "note": "(stereo not drawn)", "Potency": "inconclusive [inhibitor, single point]"}
{"compound": "COc1ccc(N2CCN(C(=O)CN(CCc3ccccc3)S(C)(=O)=O)CC2)cc1", "Potency": "inconclusive [inhibitor, partial curve]"}
{"compound": "O=C(CCNC(=O)C1CCN(S(=O)(=O)c2ccc(F)cc2)CC1)Nc1ccccc1", "activity change, negative = growth inhibition": "inactive: -1.23%"}
{"compound": "Cc1ccc(NC(=O)C(=O)NCC(c2cccnc2)N2CCN(Cc3ccccc3)CC2)cc1Cl", "note": "(stereo not drawn)", "Potency": "active: 10.3 µM"}
{"compound": "COc1cccc(Nc2ncc3nc(C)c(=O)n(CCC#N)c3n2)c1", "Potency": "active: 0.231 µM"}
{"compound": "O=C(COc1ccccc1)NCC(=O)N1CCCC1", "activity change, negative = growth inhibition": "inactive: 15.8%"}
{"compound": "Cc1cc(Cl)ccc1NC(=O)CSc1nc2c(c(=O)[nH]1)CCC2", "activity change, negative = growth inhibition": "inactive: -12.8%"}
{"compound": "CCCOc1ccc(Oc2nc(NC)nc(N3CCOCC3)n2)nn1", "Potency": "inconclusive [inhibitor, partial curve]"}
{"compound": "O=C(Nc1cccc(F)c1)N1CC=C(n2c(=O)[nH]c3ccccc32)CC1", "Potency": "inconclusive [inhibitor, single point]"}
{"compound": "Cc1ccc(SCC(=O)Nc2ccc3oc(-c4cccc(Cl)c4)nc3c2)cc1", "Potency": "inconclusive [inhibitor, partial curve]"}
{"compound": "CC(C)(C)N1C(=O)c2ccc(C(=O)Nc3ccc(O)cc3)cc2C1=O", "Potency": "inconclusive [inhibitor, single point]"}
{"compound": "CCC1(c2ccc(F)cc2)NC(=O)N(CC(=O)Nc2cccc(S(=O)(=O)N3CCCC3)c2)C1=O", "note": "(stereo not drawn)", "Potency": "inconclusive [inhibitor, single point]"}
{"compound": "O=C(Cn1ncc2c3ccccc3n(Cc3ccc(F)cc3)c2c1=O)NCc1ccccn1", "Potency": "inconclusive [inhibitor, partial curve]"}
{"compound": "CC(C)c1ccc(NC(=O)Nc2nc(C(C)N)cs2)cc1", "note": "(stereo not drawn)", "Potency": "active: 14.6 µM"}
